# Whole data set: some 33,000 sequences, median “E-score (-0.5 to 0.5)” near -0.043, cut for the highest 2% near 0.37. The list shows a part of the results.
# Target: T1, Upc2 (UniProt Q12151)
# T1 sequence: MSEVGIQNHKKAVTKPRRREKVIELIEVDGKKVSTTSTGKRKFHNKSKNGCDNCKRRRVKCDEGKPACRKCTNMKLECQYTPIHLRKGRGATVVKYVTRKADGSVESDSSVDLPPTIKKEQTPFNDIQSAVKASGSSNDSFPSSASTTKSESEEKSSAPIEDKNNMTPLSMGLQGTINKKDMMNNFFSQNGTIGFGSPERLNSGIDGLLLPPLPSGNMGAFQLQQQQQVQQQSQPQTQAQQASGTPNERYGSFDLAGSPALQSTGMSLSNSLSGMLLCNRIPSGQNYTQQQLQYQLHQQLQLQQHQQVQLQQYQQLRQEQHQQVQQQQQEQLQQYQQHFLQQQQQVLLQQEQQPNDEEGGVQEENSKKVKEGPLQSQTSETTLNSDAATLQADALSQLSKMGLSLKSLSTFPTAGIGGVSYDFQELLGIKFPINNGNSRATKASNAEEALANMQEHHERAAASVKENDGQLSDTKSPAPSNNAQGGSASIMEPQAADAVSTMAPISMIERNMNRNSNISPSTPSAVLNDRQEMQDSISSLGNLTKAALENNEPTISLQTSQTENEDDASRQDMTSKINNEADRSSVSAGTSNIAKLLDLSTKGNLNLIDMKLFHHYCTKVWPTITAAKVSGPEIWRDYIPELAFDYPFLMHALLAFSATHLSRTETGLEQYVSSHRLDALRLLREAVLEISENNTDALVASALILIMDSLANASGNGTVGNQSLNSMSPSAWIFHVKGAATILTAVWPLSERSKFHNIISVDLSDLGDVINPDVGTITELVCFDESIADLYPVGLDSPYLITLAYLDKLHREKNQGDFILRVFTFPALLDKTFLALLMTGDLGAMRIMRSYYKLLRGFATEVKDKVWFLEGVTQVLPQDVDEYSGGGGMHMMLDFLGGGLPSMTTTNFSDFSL
# Assay: PBM E-score (8-mer binding enrichment) (E-score (-0.5 to 0.5)); higher = stronger / more preferred TF binding; most listed sequences are background and not binding sites
# Details: protein concentration: 200 nM; construct: GST-full length
# Summary of the method: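 Detection of bound protein used fluorescent anti-GST, with scans normalised by masliner. The proteins were GST-tagged yeast transcription factors applied at about 100-200 nM to universal all-10-mer Agilent arrays made double-stranded by primer extension. Each ungapped eight-base word, pooled with its reverse complement, was scored with an E-score from the Universal PBM Analysis Suite.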
row,Sequence,PBM E-score
1,ATCAACTC,0.0114
2,CGGGGCGA,0.0688
3,AGTACGAT,0.345
4,CAGTAGGC,-0.0788
5,AACCCAAG,-0.0808
6,GGTGTACA,-0.0299
7,CTAAAGTA,-0.0451
8,AACGCCTC,-0.141
9,CCAGTAAC,-0.0934
10,ATTGCCGA,0.0654
11,AGCCTGCA,-0.194
12,CTATATAG,0.114
13,CCAATTTA,0.0967
14,AGAATGGA,-0.0363
15,CTTCCCCA,-0.212
16,AACGACCT,0.386
17,CTGTGTGA,-0.201
18,CATTGCGG,-0.0808
19,TTCATGAA,-0.0797
20,GCGTGTGA,-0.14
21,CGCTTATC,0.161
22,ACCCGTAG,-0.11
23,ACAACCTC,-0.0133
24,CAGGGGCG,-0.25
25,ATCGCAAG,-0.255

row,Sequence,PBM E-score
1,AAAGCAGG,-0.168
2,GCATCCCA,-0.159
3,GGTTGGTA,0.162
4,CATGGGGG,-0.334
5,TGCCGGCA,-0.104
6,CAGCGCGA,-0.106
7,CGCTACCG,0.1
8,GGTCTCTA,-0.139
9,AGCATAGC,-0.118
10,GGAGTAAC,-0.169
11,AGCGATCA,0.11
12,AAACGGGA,0.369
13,AAAAATCG,0.0206
14,AAGCTCCT,-0.197
15,AAGTTCCG,0.0425
16,GTGCAGGA,-0.214
17,TACTGAGA,-0.214
18,ACTTCTTA,0.0217
19,GCCCCGAA,-0.148
20,CTATGATA,-0.0237
21,CAGCTCTA,-0.212
22,TGACCCCA,-0.148
23,GGCTAGCC,-0.266
24,ACGGGCTG,0.0956
25,AGTTAACG,0.331

row,Sequence,PBM E-score
1,TCGGTAGA,-0.0774
2,CAGTCTAA,0.0641
3,AGATGATG,-0.02
4,ACCCCAGT,-0.132
5,CTTCCATA,-0.192
6,CAGGAAGG,-0.338
7,CAGGTAGA,-0.0845
8,GGCCGTTA,0.145
9,GGGGGGCA,-0.084
10,ACCGGCAC,-0.0782
11,ACAGTGAG,-0.199
12,CTTAGACC,-0.154
13,AATTACCT,0.129
14,CTTAGCTC,-0.13
15,GGGCATTA,-0.0598
16,CCTTCCAC,-0.0571
17,GCTCACTA,-0.0903
18,AAAATCTT,-0.0882
19,AGAGGGAG,-0.126
20,AGGGGCTC,-0.17
21,TACCCTCA,-0.177
22,GCCCAGTA,-0.116
23,AAGGTACC,-0.0716
24,GTTACAAA,0.0116
25,CCAGCGCA,-0.221

row,Sequence,PBM E-score
1,ACTTGTAC,0.259
2,CCTCTTCC,-0.228
3,GACGAACC,0.0416
4,ATGGTAGC,0.124
5,GAGGCACA,-0.218
6,AGGAGGCG,-0.326
7,TAAGCGTA,0.209
8,CGCGGTTC,0.298
9,CCTGCTAC,-0.0996
10,ACAGAACA,0.0969
11,ACTCCGCA,-0.165
12,ATCACAGC,-0.188
13,AATGGGCC,-0.0829
14,CCCTGATC,0.146
15,CTGTCATA,-0.0549
16,ACCGGTCG,0.251
17,CCCATCAC,-0.219
18,CGAGAAGC,0.129
19,GCGGAGTA,-0.0716
20,ACCCGGGA,-0.0342
21,CACAATCG,0.196
22,GAAACAGC,-0.0577
23,CCGCTAAC,0.048
24,TAGGCGCA,-0.14
25,CCATGGCA,-0.16

row,Sequence,PBM E-score
1,GGAGTTAC,-0.0562
2,GACGATTA,0.0842
3,CCGACCCG,0.15
4,GAAGACGC,-0.0866
5,CACCCCGG,-0.245
6,AATCACAC,-0.081
7,AGGTTACT,-0.141
8,CAATATCA,-0.0845
9,GTCAGAAC,0.00961
10,CAGCGGAA,-0.0604
11,CTCAACAG,-0.262
12,CTATCTTA,-0.18
13,GCTAAATA,-0.0133
14,CCGGGTGC,-0.329
15,CAAATGTA,0.105
16,GCCCATGA,-0.128
17,GCACGCCC,-0.0756
18,GAGTTTGC,-0.107
19,CTAAGCTC,-0.201
20,ACGGCCCT,0.237
21,ATGGTGCG,0.0453
22,CACTTAAG,-0.0164
23,AATGGCAG,-0.136
24,ACATAACA,0.0799
25,AGGTGACA,-0.192

row,Sequence,PBM E-score
1,ATATTTGA,-0.00169
2,ATGCCTTA,0.036
3,AGTCACCA,-0.215
4,AATCATGT,-0.00779
5,GGTCCTCA,-0.0879
6,GAGGGGAC,-0.152
7,CGATTAAC,0.198
8,CATTACCG,-0.0304
9,ACAGACCG,0.0177
10,ACACATCA,-0.0896
11,CCCGTCTA,-0.111
12,AGGATTCG,-0.0399
13,AGCTTCGA,-0.185
14,CATGAGTA,-0.0577
15,TCTGGACA,-0.0399
16,ACTGTCTC,-0.0331
17,ACTTAAGT,-0.0569
18,ATTGTGCG,0.129
19,ACAGAGCG,-0.0821
20,CGCGGCCC,-0.0751
21,GAGCTGAC,-0.111
22,CTTTCATC,-0.298
23,TCATACGA,0.469
24,CGTTAGGA,0.129
25,CGGTTTAA,0.218

row,Sequence,PBM E-score
1,CACTATTA,0.00078
2,CATCAGAC,-0.0987
3,ACGCCCAT,0.0847
4,ACCCATGG,-0.276
5,CGATATTA,0.176
6,CCATGAGG,-0.219
7,GCAGAAAA,0.227
8,CGGAAGAC,0.00447
9,CTTTAGCA,-0.25
10,GCCTTAAA,0.109
11,ACATGTGG,-0.168
12,AAGTTGGA,-0.048
13,ACCGTGCA,-0.0181
14,CCAGAATA,-0.00693
15,AAAAACTC,-0.0151
16,AACATCTA,-0.118
17,CCAACTAA,-0.114
18,CACGGTCC,-0.146
19,CCACTTCA,-0.1
20,ATTACTGC,-0.0794
21,GTAGAGAA,0.185
22,AGCTCCCA,-0.0529

# — the supplement of paper PMC3334620
